Source: patent US12642271B2, “Active compound combinations comprising a (thio)carboxamide derivative and a fungicidal compound” (Bayer CropScience Aktiengesellschaft, priority 2011, dated 2026)
Like-named read-outs stand apart in the source and are kept apart here.

Legend:
Venturia inaequalis = experiment: Venturia test (apples)/preventive; conditions: 240 h
Method: The test is evaluated 10 days after the inoculation.

Sphaerotheca fuliginea = experiment: Sphaerotheca test (cucumbers)/preventive; conditions: Podosphaera fuliginea, 168 h, read-out: Efficacy in % found; for pest or weed control at 0.125 ppm: 0.125 ppm a.i.; for pest or weed control at 1.25 ppm: 1.25 ppm a.i.
Method: After the spray coating has dried on, the plants are inoculated with an aqueous spore suspension of Sphaerotheca fuliginea.
The test is evaluated 7 days after the inoculation.

[1] = read-out: Efficacy in % found, Table 2a, 0.125 ppm a.i.
[2] = read-out: Efficacy in % found, Table 2b, 0.125 ppm a.i.
[3] = read-out: Efficacy in % found, Table 2d, 0.125 ppm a.i.

Question: How did the pest or weed control at 0.125 ppm (Venturia inaequalis; [1]) turn out when CC(C)c1ccccc1CN(C(=O)c1c(C(F)F)nn(C)c1F)C1CC1 [A1, N-cyclopropyl-3-(difluoromethyl)-5-fluoro-N-(2-isopropylbenzyl)-1-methyl-1H-pyrazole-4-carboxamide] was run?
Answer: 0%

Question: What about the pest or weed control at 0.125 ppm (Venturia inaequalis; [2]) of the same compound?
Answer: 15%

Question: What about the pest or weed control at 0.125 ppm (Sphaerotheca fuliginea; Table 4c) of the same compound?
Answer: 0%

Question: How did the pest or weed control at 0.125 ppm (Venturia inaequalis; [3]) turn out when CC(C)c1ccc(Cl)cc1CN(C(=O)c1c(C(F)F)nn(C)c1F)C1CC1 [A5, N-(5-chloro-2-isopropylbenzyl)-N-cyclopropyl-3-(difluoromethyl)-5-fluoro-1-methyl-1H-pyrazole-4-carboxamide] was run?
Answer: 0%

Question: And the pest or weed control at 0.125 ppm (Sphaerotheca fuliginea; Table 4d)?
Answer: 0%

Question: Which results are given for Cn1nc(C(F)F)c(C(=O)N(Cc2cc(Cl)ccc2C(F)(F)F)C2CC2)c1F [A15, N-[5-chloro-2-(trifluoromethyl)benzyl]-N-cyclopropyl-3-(difluoromethyl)-5-fluoro-1-methyl-1H-pyrazole-4-carboxamide]?
Answer: pest or weed control at 0.125 ppm (Venturia inaequalis; [1]): 0%; pest or weed control at 0.125 ppm (Sphaerotheca fuliginea; Table 4c): 50%

Question: Which pest or weed control at 0.125 ppm (Venturia inaequalis; [1]) does the source give for Cn1nc(C(F)F)c(C(=O)N(Cc2c(Cl)cccc2C(F)(F)F)C2CC2)c1F [A17, N-[2-chloro-6-(trifluoromethyl)benzyl]-N-cyclopropyl-3-(difluoromethyl)-5-fluoro-1-methyl-1H-pyrazole-4-carboxamide] here?
Answer: 0%

Question: Which results are given for Cn1nc(C(F)F)c(C(=O)N(Cc2c(C(F)(F)F)ccc(Cl)c2F)C2CC2)c1F [A18, N-[3-chloro-2-fluoro-6-(trifluoromethyl)benzyl]-N-cyclopropyl-3-(difluoromethyl)-5-fluoro-1-methyl-1H-pyrazole-4-carboxamide]?
Answer: pest or weed control at 0.125 ppm (Venturia inaequalis; [1]): 0%; pest or weed control at 0.125 ppm (Venturia inaequalis; [2]): 0%

Question: With CCCC1COC(Cn2cncn2)(c2ccc(Cl)cc2Cl)O1 (stereo not shown) [B1.40, propiconazole] as the compound, how does the pest or weed control at 1.25 ppm (Sphaerotheca fuliginea; Table 4d) read?
Answer: 57%

Question: OC(Cc1ccccc1Cl)(Cn1nc[nH]c1=S)C1(Cl)CC1 (stereo not shown) [B1.41, prothioconazole] was tested. Which pest or weed control at 0.125 ppm (Venturia inaequalis; [3]) did it give?
Answer: 78%

Question: For CC(C)(C)C(O)(CCc1ccc(Cl)cc1)Cn1cncn1 (stereo not shown) [B1.47, tebuconazole], which pest or weed control at 1.25 ppm (Sphaerotheca fuliginea; Table 4d) is on record?
Answer: 0%
